Assay results reported in the supplement of paper PMC12217912.
This is one part of the list. Sequences were assembled here from the parent chain. Inactive controls read about 0.05.

B1: TEV protease; numbered along this chain (parent)
chain: MGESLFKGPRDYNPISSSICHLTNESDGHTTSLYGIGFGPFIITNKHLFRRNNGTLVVQSLHGVFKVKDTTTLQQHLVDGRDMIIIRMPKDFPPFPQKLKFREPQREERICLVTTNFQTKSMSSMVSDTSCTFPSGDGIFWKHWIQTKDGQCGSPLVSTRDGFIVGIHSASNFTNTNNYFTSVPKNFMELLTNQEAQQWVSGWRLNADSVLWGGHKVFMVKPEEPFQPVKEATQL

Variants of: B1
Assay: raw area under fraction-flipped curve 0-4 h after induction (AUC4h, not background-subtracted), DNA-recorder readout of cleavage of the substrate (dimensionless); higher = more cleavage of the substrate by the protease variant
Settings: temperature: 34 °C; time window: 0-4 h after rhamnose induction
Experimental: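 In vivo DNA recorder in E. coli TOP10(DE3) ΔrhaA at 34 °C. Each TEVp single-site mutant (parent TEVp 0) is paired with a single-site variant of the 7-mer TEVs (canonical ENLYFQ|S). The substrate sits between flexible linkers in a Bxb1-sfGFP-TEVs-SsrA fusion, so cleavage stabilises Bxb1 and speeds flipping of a recombination array, read by NGS. The value is the raw area under the fraction-flipped curve over 0-4 h after rhamnose induction (AUC4h), with ≥20 reads per time point. It is not background-subtracted; inactive controls average about 0.047.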
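Also: Bxb1 expression induced with 0.2% (w/v) L-rhamnose at OD600 near 0.5, cultures sampled hourly, flipped fraction per protease–substrate barcode pair counted by paired-end Illumina sequencing.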

Variant | area with substrate ENLYFAS | area with substrate ENLYFCS | area with substrate ENLYFDS | area with substrate ENLYFES | area with substrate ENLYFGS | area with substrate ENLYFHS | area with substrate ENLYFIS | area with substrate ENLYFKS | area with substrate ENLYFLS | area with substrate ENLYFMS | area with substrate ENLYFNS | area with substrate ENLYFPS | area with substrate ENLYFRS | area with substrate ENLYFTS | area with substrate ENLYFVS | area with substrate ENLYFWS | area with substrate ENLYFYS | area with substrate ENLYFFS | area with substrate ENLYFSS
MGESLFKGPRDYNPISSSICHLTNESDGHTTSLYGIGFGPFIITNKNLFRRNNGTLVVQSLHGVFKVKDTTTLQQHLVDGRDMIIIRMPKDFPPFPQKLKFREPQREERICLVTTNFQTKSMSSMVSDTSCTFPSGDGIFWKHWIQTKDGQCGSPLVSTRDGFIVGIHSASNFTNTNNYFTSVPKNFMELLTNQEAQQWVSGWRLNADSVLWGGHKVFMVKPEEPFQPVKEATQL [H47N] | 0.0469 | 0.0539 | 0.0637 | 0.0575 | 0.0652 | 0.0636 | 0.0528 | 0.077 | 0.0538 | 0.0547 | 0.0521 | 0.0572 | 0.0665 | 0.079 | 0.0477 | 0.0559 | 0.0617 |  | 
MGESLFKGPRDYNPISSSICHLTNESDGHTTSLYGIGFGPFIITNKYLFRRNNGTLVVQSLHGVFKVKDTTTLQQHLVDGRDMIIIRMPKDFPPFPQKLKFREPQREERICLVTTNFQTKSMSSMVSDTSCTFPSGDGIFWKHWIQTKDGQCGSPLVSTRDGFIVGIHSASNFTNTNNYFTSVPKNFMELLTNQEAQQWVSGWRLNADSVLWGGHKVFMVKPEEPFQPVKEATQL [H47Y] | 0.0514 | 0.0594 | 0.049 | 0.0603 | 0.0466 | 0.0377 | 0.0553 | 0.0767 | 0.0534 | 0.0579 | 0.0585 | 0.06 | 0.062 | 0.0441 | 0.0538 | 0.0566 |  | 0.055 | 
MGESLFKGPRDYNPISSSICHLTNESDGHTTSLYGIGFGPFIITNKHLGRRNNGTLVVQSLHGVFKVKDTTTLQQHLVDGRDMIIIRMPKDFPPFPQKLKFREPQREERICLVTTNFQTKSMSSMVSDTSCTFPSGDGIFWKHWIQTKDGQCGSPLVSTRDGFIVGIHSASNFTNTNNYFTSVPKNFMELLTNQEAQQWVSGWRLNADSVLWGGHKVFMVKPEEPFQPVKEATQL [F49G] | 0.0449 | 0.041 | 0.0635 | 0.0605 | 0.0578 | 0.0536 | 0.0564 | 0.0568 |  | 0.0535 |  | 0.0634 | 0.0515 | 0.0437 |  | 0.0599 | 0.0414 | 0.0533 | 0.0681
MGESLFKGPRDYNPISSSICHLTNESDGHTTSLYGIGFGPFIITNKHLPRRNNGTLVVQSLHGVFKVKDTTTLQQHLVDGRDMIIIRMPKDFPPFPQKLKFREPQREERICLVTTNFQTKSMSSMVSDTSCTFPSGDGIFWKHWIQTKDGQCGSPLVSTRDGFIVGIHSASNFTNTNNYFTSVPKNFMELLTNQEAQQWVSGWRLNADSVLWGGHKVFMVKPEEPFQPVKEATQL [F49P] | 0.0506 | 0.0465 | 0.0509 | 0.0599 | 0.0639 | 0.0662 | 0.0532 | 0.0482 | 0.0634 | 0.0572 | 0.0508 |  | 0.0474 | 0.0565 | 0.0645 | 0.0593 |  | 0.0646 | 0.0597
MGESLFKGPRDYNPISSSICHLTNESDGHTTSLYGIGFGPFIITNKHLRRRNNGTLVVQSLHGVFKVKDTTTLQQHLVDGRDMIIIRMPKDFPPFPQKLKFREPQREERICLVTTNFQTKSMSSMVSDTSCTFPSGDGIFWKHWIQTKDGQCGSPLVSTRDGFIVGIHSASNFTNTNNYFTSVPKNFMELLTNQEAQQWVSGWRLNADSVLWGGHKVFMVKPEEPFQPVKEATQL [F49R] | 0.045 |  |  |  | 0.0527 | 0.0501 | 0.0536 | 0.0515 | 0.0574 | 0.0626 | 0.0555 | 0.0558 | 0.0493 | 0.0513 |  | 0.0371 | 0.0303 | 0.0717 | 0.0635
MGESLFKGPRDYNPISSSICHLTNESDGHTTSLYGIGFGPFIITNKHLFRRNNHTLVVQSLHGVFKVKDTTTLQQHLVDGRDMIIIRMPKDFPPFPQKLKFREPQREERICLVTTNFQTKSMSSMVSDTSCTFPSGDGIFWKHWIQTKDGQCGSPLVSTRDGFIVGIHSASNFTNTNNYFTSVPKNFMELLTNQEAQQWVSGWRLNADSVLWGGHKVFMVKPEEPFQPVKEATQL [G54H] | 0.0562 |  |  | 0.0651 | 0.0663 |  | 0.0577 | 0.0599 |  | 0.0565 | 0.0624 | 0.067 | 0.0448 | 0.0569 | 0.0677 | 0.0616 |  | 0.0596 | 0.0393
MGESLFKGPRDYNPISSSICHLTNESDGHTTSLYGIGFGPFIITNKHLFRRNNLTLVVQSLHGVFKVKDTTTLQQHLVDGRDMIIIRMPKDFPPFPQKLKFREPQREERICLVTTNFQTKSMSSMVSDTSCTFPSGDGIFWKHWIQTKDGQCGSPLVSTRDGFIVGIHSASNFTNTNNYFTSVPKNFMELLTNQEAQQWVSGWRLNADSVLWGGHKVFMVKPEEPFQPVKEATQL [G54L] | 0.0549 | 0.0497 | 0.0562 | 0.0567 |  |  | 0.0552 | 0.058 | 0.0598 | 0.0553 | 0.061 | 0.0573 | 0.0691 | 0.0546 | 0.0578 | 0.047 | 0.0623 | 0.0514 | 0.0469
MGESLFKGPRDYNPISSSICHLTNESDGHTTSLYGIGFGPFIITNKHLFRRNNRTLVVQSLHGVFKVKDTTTLQQHLVDGRDMIIIRMPKDFPPFPQKLKFREPQREERICLVTTNFQTKSMSSMVSDTSCTFPSGDGIFWKHWIQTKDGQCGSPLVSTRDGFIVGIHSASNFTNTNNYFTSVPKNFMELLTNQEAQQWVSGWRLNADSVLWGGHKVFMVKPEEPFQPVKEATQL [G54R] | 0.0488 | 0.0647 | 0.0639 | 0.0639 |  | 0.064 | 0.0631 | 0.0496 | 0.0603 | 0.056 | 0.037 | 0.0607 | 0.0543 | 0.064 | 0.0522 | 0.0547 |  | 0.069 | 
